Where two headings read alike, the source gives them in different places.
How the values were obtained:
[1] = target: T1, 5-HT2A receptor (Homo sapiens, UniProt P28223); design: expressed in transfected cells; host or cells: HEK 293 (membrane preparation); settings: cited from earlier work
[2] = target: T1, 5-HT2A receptor; design: expressed in transfected cells; host or cells: NIH-3T3 mouse embryonic fibroblasts; method as in Luethi et al., 2018; settings: ref Luethi et al., 2018, cited from earlier work
[3] = target: T1, 5-HT2A receptor; assay: biochemical; assay type: binding; design: expressed in transfected cells; host or cells: HEK 293 (membrane preparation); settings: for Selectivity (binding ratios) 5-HT2A/5-HT1A / Selectivity (binding ratios) 5-HT2A/5-HT2C: binding ratio
[4] = target: T1, 5-HT2A receptor; assay: Activity at the 5-HT2A receptor (FLIPR calcium, NIH-3T3 cells); assay type: cell-based; design: expressed in transfected cells; host or cells: NIH-3T3 mouse embryonic fibroblasts; settings: for Emax: NIH3T3, relative to 5-HT = 100%, read-out: h5-HT2A Activation efficacy max ± SD
[5] = [3H]ketanserin, read-out: h5-HT2A Receptor binding Ki ± SD

T1 sequence (P28223 whole entry): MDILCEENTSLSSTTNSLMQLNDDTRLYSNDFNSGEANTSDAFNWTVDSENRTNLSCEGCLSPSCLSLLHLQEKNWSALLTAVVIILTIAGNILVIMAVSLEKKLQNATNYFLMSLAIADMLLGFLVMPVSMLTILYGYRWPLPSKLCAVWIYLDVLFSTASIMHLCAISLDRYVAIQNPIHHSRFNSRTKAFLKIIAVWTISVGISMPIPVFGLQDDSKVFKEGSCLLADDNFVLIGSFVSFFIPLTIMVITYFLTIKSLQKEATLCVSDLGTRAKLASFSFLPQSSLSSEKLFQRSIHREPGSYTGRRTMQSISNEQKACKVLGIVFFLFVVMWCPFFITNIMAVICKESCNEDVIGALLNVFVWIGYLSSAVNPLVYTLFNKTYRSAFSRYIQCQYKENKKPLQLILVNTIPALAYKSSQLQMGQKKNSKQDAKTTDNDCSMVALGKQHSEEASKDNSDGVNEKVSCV

Structure (SMILES) | Ki [3, 5] [nM] | Selectivity (binding ratios) 5-HT2A/5-HT1A [3] | Selectivity (binding ratios) 5-HT2A/5-HT2C [3] | EC50 [4] [nM] | Emax [4] [%] | other results
COc1cc(CCN)c(OC)cc1Br [2C-B, 4-bromo-2,5-dimethoxyphenethylamine] | – | – | – | – | – | Ki ([1]; [3H]ketanserin, ref Luethi et al., 2018, read-out: h5-HT2A Receptor binding Ki ± SD): 6.9 ± 1.8 nM; EC50 ([2]; read-out: h5-HT2A Activation potency EC50 ± SD): 2.1 ± 0.8 nM; h5-HT2A Activation efficacy max ± SD ([2]; relative to 5-HT): 92 ± 8%
CCOc1cc(OC)c(CCN)cc1OC [2C-O-2, 2,5-dimethoxy-4-ethoxyphenethylamine] | 670 ± 90 | 5.4 | 3.4 | 16 ± 3 | 50 ± 10 | –
C=C(C)COc1cc(OC)c(CCN)cc1OC [2C-O-3, 2,5-dimethoxy-4-methallyloxyphenethylamine] | 40 ± 8 | 68 | 3.8 | 0.5 ± 0.3 | 70 ± 4 | Higher 5-HT2A activation potency than 2C-B [4]: 4 fold
C=CCOc1cc(OC)c(CCN)cc1OC [2C-O-16, 4-allyloxy-2,5-dimethoxyphenethylamine] | 140 ± 40 | 32 | 3.4 | 4.9 ± 2.5 | 84 ± 4 | –
COc1cc(OCCF)c(OC)cc1CCN [2C-O-21, 2,5-dimethoxy-4-(2-fluoroethoxy)phenethylamine] | 1700 ± 600 | 3.2 | 2.1 | 53 ± 15 | 44 ± 17 | –
COc1cc(OCC(F)F)c(OC)cc1CCN [2C-O-21.5, 4-(2,2-difluoroethoxy)-2,5-dimethoxyphenethylamine] | 1000 ± 100 | 2.9 | 4.2 | 2600 ± 1600 | 30 ± 8 | 5-HT2A activation potency (EC50) higher than for 2C-O-21 (9) ([4]; higher EC50): 50 fold; 5-HT2A activation potency (EC50) higher than for 2C-O-22 (11) ([4]; higher EC50): 6 fold
COc1cc(OCC(F)(F)F)c(OC)cc1CCN [2C-O-22, 2,5-dimethoxy-4-(2,2,2-trifluoroethoxy)phenethylamine] | 440 ± 60 | 7.5 | 4.3 | 460 ± 140 | 35 ± 8 | –
COc1cc(OCc2ccccc2)c(OC)cc1CCN [2C-O-27, 4-benzyloxy-2,5-dimethoxyphenethylamine] | 8.1 ± 1 | 333 | 14 | 76 ± 80 | 36 ± 16 | –
C=CCOc1cc(OC)c(CC(C)N)cc1OC (centres unmarked) [MALM, 4-allyloxy-2,5-dimethoxyamphetamine] | 150 | >37 | 6 | 2.9 ± 0.5 | 89 | Increase in 5-HT2A activation potency compared to 19 [4]: 66 fold
COc1cc(OCC(F)F)c(OC)cc1CC(C)N (centres unmarked) [MDFEM, 4-(2,2-difluoroethoxy)-2,5-dimethoxyamphetamine] | 980 ± 620 | >5.7 | 6.8 | 140 ± 80 | 48 ± 23 | Increase in 5-HT2A activation potency compared to 15 [4]: 2 fold
COc1cc(OCCF)c(OC)cc1CC(C)N (centres unmarked) [MFEM, 2,5-dimethoxy-4-(2-fluoroethoxy)amphetamine] | 1900 ± 900 | >2.9 | 5.8 | 330 ± 180 | 56 ± 36 | –
COc1cc(OC(C)C)c(OC)cc1CC(C)N (centres unmarked) [MIPM, 2,5-dimethoxy-4-isopropoxyamphetamine] | 4400 ± 2100 | >1.4 | 2.1 | 990 ± 330 | 47 ± 13 | –
C=C(C)COc1cc(OC)c(CC(C)N)cc1OC (centres unmarked) [MMALM, 2,5-dimethoxy-4-methallyloxyamphetamine] | 61 | – | 4.8 | 1.5 ± 0.1 | 95 | –
COc1cc(OCC(F)(F)F)c(OC)cc1CC(C)N (centres unmarked) [MTFEM, 2,5-dimethoxy-4-(2,2,2-trifluoroethoxy)amphetamine] | 460 ± 240 | >12 | 5.2 | 19 ± 1 | 80 ± 6 | Increase in 5-HT2A activation potency compared to 15 [4]: 17 fold
COc1cc(OC)c(OC)cc1CC(C)N (centres unmarked) [TMA-2, 2,4,5-trimethoxyamphetamine] | – | – | – | 190 ± 90 | 84 ± 10 | Ki [3]: 1300 ± 700 nM
COc1cc(CCN)cc(OC)c1OC [mescaline, 3,4,5-trimethoxyphenethylamine] | – | – | – | – | – | Ki ([1]; ref Rickli et al., 2015, read-out: 5-HT2A receptor binding affinity): 6300 nM
